{"source": "the supplement of paper PMC3334620", "note": "In all, about 33,000 sequences were measured (“E-score (-0.5 to 0.5)”: median about -0.011, highest 2% from about 0.28 on). Some of the results follow."}
{"target": "T1, Gcr1 (UniProt P07261)", "T1 sequence": "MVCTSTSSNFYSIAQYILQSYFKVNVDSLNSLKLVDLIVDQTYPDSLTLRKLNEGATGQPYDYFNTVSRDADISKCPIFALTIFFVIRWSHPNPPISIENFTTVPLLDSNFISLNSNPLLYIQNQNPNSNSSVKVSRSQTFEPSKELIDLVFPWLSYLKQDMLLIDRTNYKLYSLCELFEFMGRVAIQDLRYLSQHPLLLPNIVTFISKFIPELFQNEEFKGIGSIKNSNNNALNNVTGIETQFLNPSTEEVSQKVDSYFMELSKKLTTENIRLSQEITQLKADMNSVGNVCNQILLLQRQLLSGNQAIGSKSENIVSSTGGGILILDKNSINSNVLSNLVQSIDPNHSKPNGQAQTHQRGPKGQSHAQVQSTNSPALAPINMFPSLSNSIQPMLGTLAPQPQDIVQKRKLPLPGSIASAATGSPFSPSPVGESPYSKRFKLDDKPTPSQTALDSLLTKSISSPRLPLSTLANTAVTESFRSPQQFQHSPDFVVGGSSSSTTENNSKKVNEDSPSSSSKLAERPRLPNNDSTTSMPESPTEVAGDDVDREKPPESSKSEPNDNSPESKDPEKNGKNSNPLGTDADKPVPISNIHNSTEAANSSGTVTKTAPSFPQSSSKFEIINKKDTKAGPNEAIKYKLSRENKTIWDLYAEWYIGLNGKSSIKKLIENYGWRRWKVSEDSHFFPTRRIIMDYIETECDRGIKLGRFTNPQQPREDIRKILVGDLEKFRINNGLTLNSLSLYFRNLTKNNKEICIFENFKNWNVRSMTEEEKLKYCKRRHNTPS", "assay": "PBM E-score (8-mer binding enrichment) (E-score (-0.5 to 0.5)); higher = stronger / more preferred TF binding; most listed sequences are background and not binding sites", "conditions": "protein concentration: 100 nM; construct: GST-full length", "how_it_was_run": "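Bound GST-tagged yeast transcription factors, applied at about 100-200 nM to double-stranded universal all-10-mer Agilent arrays, were detected with fluorescent anti-GST. Scans were normalised with masliner. A modified Wilcoxon-Mann-Whitney statistic, the E-score, was assigned to each ungapped eight-base word pooled with its reverse complement by the Universal PBM Analysis Suite.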"}
{"sequence": "GTCCCCGA", "PBM E-score": 0.0179}
{"sequence": "CGACTCAA", "PBM E-score": -0.0878}
{"sequence": "CGACGTAA", "PBM E-score": 0.0282}
{"sequence": "ACTGCTAT", "PBM E-score": -0.225}
{"sequence": "CACAGCAA", "PBM E-score": 0.141}
{"sequence": "AGACATCG", "PBM E-score": -0.237}
{"sequence": "ATCCTGAA", "PBM E-score": 0.31}
{"sequence": "ATGCCAAA", "PBM E-score": 0.0279}
{"sequence": "CGATTACA", "PBM E-score": -0.0405}
{"sequence": "CGGTAAAC", "PBM E-score": 0.00368}
{"sequence": "AATGGCGC", "PBM E-score": 0.253}
{"sequence": "AAGGTGGA", "PBM E-score": -0.0451}
{"sequence": "GCAACGCA", "PBM E-score": -0.083}
{"sequence": "CTGGGTGA", "PBM E-score": -0.044}
{"sequence": "GGCGTGTA", "PBM E-score": 0.108}
{"sequence": "ATCGTAAA", "PBM E-score": 0.0285}
{"sequence": "GCAGCGCC", "PBM E-score": 0.28}
{"sequence": "ACGTAGCT", "PBM E-score": 0.282}
{"sequence": "AAGATAAC", "PBM E-score": -0.182}
{"sequence": "TGCCCTAA", "PBM E-score": -0.097}
{"sequence": "ACTTTTTA", "PBM E-score": 0.174}
{"sequence": "CGGTGTCC", "PBM E-score": -0.135}
{"sequence": "AAGAGGAC", "PBM E-score": -0.0984}
{"sequence": "CACATCAC", "PBM E-score": 0.0275}
{"sequence": "CTAAGTAC", "PBM E-score": -0.0637}
{"sequence": "AAAAAGAC", "PBM E-score": 0.123}
{"sequence": "AGCTGATA", "PBM E-score": 0.0575}
{"sequence": "TCAGACGA", "PBM E-score": -0.0961}
{"sequence": "ATCCTGTC", "PBM E-score": 0.266}
{"sequence": "AACATAGT", "PBM E-score": 0.00773}
{"sequence": "ATAGCTCA", "PBM E-score": -0.211}
{"sequence": "CACTAAGA", "PBM E-score": 0.243}
{"sequence": "CGGGCCAA", "PBM E-score": 0.00404}
{"sequence": "GCATAAAC", "PBM E-score": 0.149}
{"sequence": "ATGGTCCC", "PBM E-score": 0.112}
{"sequence": "CGGTACTC", "PBM E-score": -0.166}
{"sequence": "ATATTTAA", "PBM E-score": 0.111}
{"sequence": "GACATTGC", "PBM E-score": -0.328}
{"sequence": "CACCTTTC", "PBM E-score": -0.0358}
{"sequence": "AGAGCAAT", "PBM E-score": -0.123}
{"sequence": "AAGAGCGG", "PBM E-score": 0.0775}
{"sequence": "TCACCCGA", "PBM E-score": 0.0808}
{"sequence": "ACCTTCGG", "PBM E-score": -0.0792}
{"sequence": "CAATGTCC", "PBM E-score": -0.0164}
{"sequence": "CCATATTC", "PBM E-score": 0.00882}
{"sequence": "ATCAGCCC", "PBM E-score": -0.136}
{"sequence": "GGGCCACC", "PBM E-score": -0.0937}
{"sequence": "GCCTGAAC", "PBM E-score": -0.161}
{"sequence": "CCCTACGC", "PBM E-score": -0.279}
{"sequence": "CCCCACCC", "PBM E-score": 0.194}
{"sequence": "CTTCAGAA", "PBM E-score": 0.0728}
{"sequence": "GCTATAAC", "PBM E-score": 0.0513}
{"sequence": "AGGAAGGC", "PBM E-score": 0.224}
{"sequence": "AAAGGAAA", "PBM E-score": 0.0832}
{"sequence": "ATGTAACA", "PBM E-score": 0.0166}
{"sequence": "CTCGGCGA", "PBM E-score": 0.00588}
{"sequence": "GTGTTTCA", "PBM E-score": 0.138}
{"sequence": "GGGATTGA", "PBM E-score": 0.0727}
{"sequence": "CGGGGGGC", "PBM E-score": -0.139}
{"sequence": "CACGTGTC", "PBM E-score": -0.103}
{"sequence": "GGGCCCAA", "PBM E-score": 0.151}
{"sequence": "ACTCCAAC", "PBM E-score": -0.0952}
{"sequence": "GATCCTCC", "PBM E-score": -0.163}
{"sequence": "ACTCTAAT", "PBM E-score": -0.029}
{"sequence": "GCAGCAAA", "PBM E-score": 0.11}
{"sequence": "AGTTTTGA", "PBM E-score": 0.117}
{"sequence": "AAATCTAA", "PBM E-score": 0.143}
{"sequence": "AGAGGCCT", "PBM E-score": -0.0444}
{"sequence": "ATCGATGG", "PBM E-score": -0.104}
{"sequence": "AAGGTTGC", "PBM E-score": 0.261}
{"sequence": "GGCTCGAC", "PBM E-score": -0.209}
{"sequence": "GCCTCACC", "PBM E-score": -0.0647}
{"sequence": "CGCTTGGA", "PBM E-score": -0.0704}
{"sequence": "CAGTATGC", "PBM E-score": -0.0127}
{"sequence": "TATCTCGA", "PBM E-score": -0.115}
{"sequence": "AGTGTAAA", "PBM E-score": -0.00592}
{"sequence": "GGTATGCA", "PBM E-score": 0.0172}
{"sequence": "CGGTATAC", "PBM E-score": 0.0322}
{"sequence": "GTGCCAGA", "PBM E-score": 0.121}
{"sequence": "GTTACCAA", "PBM E-score": 0.0112}
{"sequence": "ACAGAGTC", "PBM E-score": -0.146}
{"sequence": "GAGTTTCC", "PBM E-score": 0.0419}
{"sequence": "GTTGCTCA", "PBM E-score": 0.204}
{"sequence": "CGGGACAG", "PBM E-score": 0.0286}
{"sequence": "AGCGCCAA", "PBM E-score": 0.124}
{"sequence": "AAAGAGCA", "PBM E-score": -0.0643}
{"sequence": "ACTCACCT", "PBM E-score": -0.102}
{"sequence": "GAACTATA", "PBM E-score": -0.0227}
{"sequence": "ACTCTAGG", "PBM E-score": -0.0525}
{"sequence": "GTACGAAA", "PBM E-score": 0.0588}
{"sequence": "AACTCATA", "PBM E-score": -0.0113}
{"sequence": "AGTTATAT", "PBM E-score": 0.0556}
{"sequence": "ACGCGCGA", "PBM E-score": -0.146}
{"sequence": "CGGACAGC", "PBM E-score": -0.212}
